Test results published in PubChem BioAssay AID903 (National Center for Advancing Translational Sciences (NCATS), 2007).
About 340 (0.62%) of roughly 55,000 compounds were called active. The shares of active, inactive and inconclusive entries below differ from those in the screen. The call rests on the fitted dose curve; in most records, active means well fitted cell-killing curve with a large enough effect; inconclusive means small, poorly fitted or top-dose-only effect; inactive means no such curve, though single readings can be large or run the other way. Potencies beside an inconclusive call are fits to weak or partial responses and may not hold up.

assay: qHTS Screen for Compounds that Selectively Target Cancer Cells with p53 Mutations: Cytotoxicity of p53 Null Cells at the Permissive Temperature; details: H1299-neo p53 null cells, ATP luminescence, 24 h, 32C; series mostly up to 46.1 µM; activity change, negative = cytotoxicity: at the top concentration; further: nearly all actives have a fitted effect of over 55% in size;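 on activity change, negative = cytotoxicity: 0% = DMSO only and -100% = full killing by 100 µM tamoxifen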
In short: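 Cytotoxicity: H1299-neo (no p53), 32C, 24 h treatment. Concentrations up to 46 uM. Readout cellular ATP, luminescence. Normalization to DMSO basal and tamoxifen 100 uM maximal kill.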
Tags describe the fitted curve by direction and shape.

Compound	Potency	activity change, negative = cytotoxicity
Cc1nnc(NC(=O)CSc2nccn2-c2ccc(Cl)cc2)s1	inconclusive: 3.55 µM [cytotoxic, single point]	–
Cc1ccc(OCc2nc(-c3ccc(C(=O)N4CCN(c5cc(Cl)ccc5C)CC4)cc3)oc2C)cc1	inconclusive: 0.0355 µM [cytotoxic, full curve, poor fit]	–
CCc1ccc(NC(=O)c2sc3nc(C)c(Cl)c(C)c3c2N)cc1	–	inactive: -22.4%
Cc1ccc(NC(=O)c2cccc(N3CCCS3(=O)=O)c2)cc1	inconclusive: 17.8 µM [cytotoxic, partial curve, poor fit]	–
CCc1cccc(NC(=O)CCc2c(C)nc3c(c2C)c(=O)n(C)c(=O)n3C)c1	–	inactive: 5.44%
Cc1ccc(CNS(=O)(=O)c2cc(C(=O)Nc3cccc(C(F)(F)F)c3)ccc2F)cc1	–	inactive: 70.3%
CCS(=O)(=O)c1ncc(Cl)c(C(=O)N2CCN(c3cccc(Cl)c3)CC2)n1	inconclusive: 20 µM [cytotoxic, single point]	–
COc1ccccc1-c1cc(C(F)(F)F)nc(S(=O)(=O)CCCC(=O)Nc2cc(OC)c(OC)c(OC)c2)n1	inconclusive: 31.6 µM [cytotoxic, single point]	–
CCc1nnc(NC(=O)c2nc(SCc3ccccc3C)ncc2Cl)s1	–	inactive: -2.18%
CCOC(=O)N1CCc2c(sc(NCc3ccc(OC)c(OC)c3OC)c2C(=O)Nc2ccc(OC)cc2OC)C1	–	inactive: 7.02%
Cc1ccc2onc(CC(=O)N(C)c3ccccc3)c2c1	inconclusive: 12.6 µM [cytotoxic, partial curve]	–
COc1ccc(CCNC(=O)c2c(C)nn(-c3ccc(F)cc3)c2-n2cccc2)cc1OC	–	inactive: 11.6%
CCOc1ccc2nc(N3CCCC(C(=O)NCCCOC)C3)sc2c1 (stereo not drawn)	inconclusive: 10 µM [cytotoxic, partial curve]	–
Cc1cccc(-c2nnn3c2nc(NCCc2ccc(S(N)(=O)=O)cc2)c2ccccc23)c1	inconclusive: 12.6 µM [cytotoxic, single point]	–
COc1cccc(N2CCN(c3ncnc4c3[nH]c3ccccc34)CC2C)c1 (stereo not drawn)	inconclusive: 20 µM [cytotoxic, single point]	–
COc1cc(NC(=O)c2cc3c(s2)-c2ccccc2OC3)cc(OC)c1OC	inconclusive: 31.6 µM [cytotoxic, single point]	–
Cc1ccc(CCNC(=O)c2c[nH]c3ccc(S(=O)(=O)Nc4ccc(C)cc4C)cc3c2=O)cc1	inconclusive: 25.1 µM [cytotoxic, single point]	–
CC(=O)c1cccc(Nc2nc(-c3cccc(C)c3)nc3ccccc23)c1	inconclusive: 11.2 µM [cytotoxic, partial curve, poor fit]	–
Cc1cc(OCCCn2c(CCNC(=O)C3CCCCC3)nc3ccccc32)ccc1Cl	inconclusive: 12.6 µM [cytotoxic, partial curve]	–
CCc1cccc(NC(=O)C2Cc3ccccc3N2C(=O)c2ccccc2)c1 (stereo not drawn)	inconclusive: 6.31 µM [cytotoxic, single point]	–
CC(=O)c1c(C)oc2ccc(N(C(=O)Oc3ccccc3)S(=O)(=O)c3ccccc3)cc12	–	inactive: 7.01%
O=C(CN1CCSc2ccccc21)N1CCN(c2ccccc2)CC1	inconclusive: 5.62 µM [cytotoxic, single point]	–

Compound	Potency	activity change, negative = cytotoxicity
CC(=O)c1ccc(NC(=O)c2ccc3c(c2)N(Cc2cccc(Cl)c2)C(=O)c2ccccc2S3(=O)=O)cc1	inconclusive: 5.62 µM [cytotoxic, single point]	–
CCC(=O)N1CCCc2cc(S(=O)(=O)N3CCC(C(=O)Nc4ccc(F)c(F)c4)CC3)ccc21	–	inactive: -8.66%
Cc1c(Cl)cccc1Nc1nn2c(=O)c3ccc(C(=O)NCCc4ccccc4)cc3nc2s1	inconclusive: 15.8 µM [cytotoxic, single point]	–
CCOc1ccccc1NC(=O)C(NS(=O)(=O)c1ccc2c(c1)CCC(=O)N2)c1ccccc1 (stereo not drawn)	–	inactive: -0.303%
CN1C(=O)c2ccccc2Sc2ccc(NC(=O)COc3ccccc3)cc21	–	inactive: 3.46%
COc1ccc(-c2cc(C(=O)Nc3ccn(Cc4ccc(C)cc4)n3)no2)cc1OC	–	inactive: 1.1%
Cc1n[nH]c(C)c1S(=O)(=O)N1CCCC(C(=O)Nc2ccc(Cl)cc2)C1 (stereo not drawn)	–	inactive: 11.7%
c1ccc(N2CCN(c3ncnc4[nH]ncc34)CC2)cc1	–	inactive: 11.4%
CC(=O)c1cccc(NC(=O)c2sc3nc4c(cc3c2N)CCCC4)c1	inconclusive: 15.8 µM [cytotoxic, partial curve]	–
COc1cccc(C2N(c3ccc(Cl)cc3)C(=O)C3CCCN32)c1 (stereo not drawn)	–	inactive: -0.0344%
COc1ccc(NC(=O)/C(C#N)=C/c2ccc(C)o2)cc1	inconclusive: 10 µM [cytotoxic, partial curve]	–
CCOC(=O)C1CCCN(C(=O)c2ccc(NC(=O)c3nsc4ccccc34)cc2)C1 (stereo not drawn)	inconclusive: 35.5 µM [cytotoxic, single point]	–
CC(C)OCCCN1C(=O)c2[nH]nc(-c3ccccc3O)c2C1c1cccc(OCc2ccccc2)c1 (stereo not drawn)	inconclusive: 31.6 µM [cytotoxic, single point]	–
CCS(=O)(=O)c1ncc(Cl)c(C(=O)N(Cc2ccccc2)c2ccc(OC)cc2)n1	inconclusive: 12.6 µM [cytotoxic, partial curve]	–
CCC(=O)Nc1cc2nn(-c3ccc(C)cc3)nc2cc1C	inconclusive: 2 µM [cytotoxic, full curve]	–
CCOc1ccccc1NC(=O)c1sc2nc(-c3ccc(OC)cc3)ccc2c1N	inconclusive: 20 µM [cytotoxic, single point]	–
CCCC(=O)NC(c1cccs1)c1cc([N+](=O)[O-])c2cccnc2c1O (stereo not drawn)	inconclusive: 7.08 µM [cytotoxic, partial curve]	–
COc1ccc(-c2nc3ccccc3o2)cc1NC(=O)CSc1ccc(Cl)cc1	–	inactive: 0.0633%
COc1cc2ccccc2cc1C(=O)Nc1cc(-c2nc3ccccc3o2)ccc1C	–	inactive: -9.75%
O=c1cc(-c2ccccc2)nc2cc(-c3ccc(F)cc3)[nH]n12	inconclusive: 12.6 µM [cytotoxic, partial curve]	–
COc1ccccc1N1CCN(c2ncnc3c2nc2n3CCCC2)CC1	inconclusive: 35.5 µM [cytotoxic, single point]	–
